Assay results reported in PubChem BioAssay AID488969 (Vanderbilt High Throughput Screening Facility, 2010).
In all, about 110,000 compounds were measured (“z-score”: median about -0.1, highest 2% from about 2 on). Some of the results follow.

These molecules were tested against Metabotropic glutamate receptor 8 (Rattus norvegicus) (UniProt P70579) (assay: rat mGluR8 modulators via GIRK flux, primary screen, cell-based, thallium flux, HTS (AID 488969)). Settings: HEK293 rat mGluR8, GIRK (G protein-gated inwardly rectifying potassium channel) thallium flux, FluoZin2; at 10 µM; stronger effect = higher value; submaximal glutamate (EC20) added with thallium.
Chain of UniProt P70579 (P70579 whole entry, looked up): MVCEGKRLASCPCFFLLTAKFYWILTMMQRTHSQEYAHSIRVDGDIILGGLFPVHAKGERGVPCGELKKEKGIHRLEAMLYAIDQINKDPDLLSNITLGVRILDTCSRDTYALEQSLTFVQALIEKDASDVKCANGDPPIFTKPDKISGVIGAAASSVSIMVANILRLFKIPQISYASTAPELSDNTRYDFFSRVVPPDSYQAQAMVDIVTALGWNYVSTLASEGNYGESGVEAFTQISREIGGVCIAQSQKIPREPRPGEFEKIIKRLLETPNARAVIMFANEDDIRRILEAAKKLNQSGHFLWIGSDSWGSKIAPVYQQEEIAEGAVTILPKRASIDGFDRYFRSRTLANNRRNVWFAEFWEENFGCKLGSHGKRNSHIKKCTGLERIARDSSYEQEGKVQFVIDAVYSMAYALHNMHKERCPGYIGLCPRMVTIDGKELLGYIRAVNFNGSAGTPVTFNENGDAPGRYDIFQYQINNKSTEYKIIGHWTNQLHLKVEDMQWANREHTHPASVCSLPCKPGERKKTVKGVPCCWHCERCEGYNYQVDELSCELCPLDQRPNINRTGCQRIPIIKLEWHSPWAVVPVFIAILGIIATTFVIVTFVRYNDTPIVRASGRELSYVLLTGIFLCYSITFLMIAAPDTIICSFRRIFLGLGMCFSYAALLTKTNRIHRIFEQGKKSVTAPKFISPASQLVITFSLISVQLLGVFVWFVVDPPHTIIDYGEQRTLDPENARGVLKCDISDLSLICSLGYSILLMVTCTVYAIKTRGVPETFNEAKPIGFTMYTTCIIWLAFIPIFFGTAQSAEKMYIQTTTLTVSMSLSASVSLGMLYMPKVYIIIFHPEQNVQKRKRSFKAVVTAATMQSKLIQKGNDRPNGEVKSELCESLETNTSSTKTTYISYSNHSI
For `Clc1cc(Br)ccc1OCCN1CCOCC1`, the z-score was -0.189.
`C/C(=N\N=C(/N)SC1CC(=O)N(c2ccccc2)C1=O)c1cccs1` (centres undefined) gave a z-score of 0.263.
`COc1cccc(/C=C/C(=O)c2ccc[nH]2)c1` gave a z-score of -1.02.
Work on `Cc1ccc(S(=O)(=O)N(Cc2ccc(Cl)cc2)c2ccccc2C(=O)NCc2ccco2)cc1` yielded a z-score of -0.281.
`COc1ccc(OC)c(N=c2oc3cc(O)ccc3cc2C(N)=O)c1` gave a z-score of 1.99.
For `COc1ccccc1NCC(=O)N/N=C/C=C/c1ccccc1`, the z-score was 0.166.
In the case of `Cc1[nH]nc2oc(=O)c(CCO)c(C)c12`, the z-score is reported as -0.549.
`Cc1cccc(NC(=O)CN(C)S(=O)(=O)c2cccc3nsnc23)c1C` gave a z-score of -0.0306.
Work on `CCC(C)NC(=O)c1ccccc1NC(=O)COc1ccc(OC)cc1` (centres undefined) yielded a z-score of 1.54.
`CCCCNC(=O)/C=C1\Sc2ccccc2NC1=O` was tested, and the z-score was -0.0224.
Work on `O=C(CSc1nc(O)cc(=O)n1-c1ccccc1)NC1CCCCC1` yielded a z-score of -0.229.
`Cc1no[n+]([O-])c1COc1ccc(/C=N/n2nnnc2N)cc1` gave a z-score of -0.265.
`COc1ccc(C(=O)Sc2ccc(Cl)cc2)cc1OC` showed a z-score of 0.264.
Work on `O=C(N/N=C/c1ccc(Br)cc1)c1ccccc1-n1cccc1` yielded a z-score of -0.629.
In the case of `Cc1c(C=O)c2ccccn2c1C(=O)c1ccccc1`, the z-score is reported as -0.165.
Work on `CCOC(=O)C1C(c2ccc(O)c(O)c2)NC(=S)NC1(O)C(F)(F)F` (centres undefined) yielded a z-score of -0.0911.
Work on `C(=N\n1cnnc1)/c1cccs1` yielded a z-score of -0.0688.
For `Cc1ccccc1OCCn1cc(/C(N)=N/O)c2ccccc21`, the z-score was 0.429.
`CCOc1ccc(-c2n[nH]c(C)c2Oc2ccc(OC)cc2)c(O)c1` gave a z-score of 1.23.
With `CCN(CC)CCNc1nc2ccccc2n1C` the z-score was 0.699.
Molecule `CCCCNC(=O)c1ccc2c(c1)N(CC)C(=O)CS2` has a z-score of 0.279.
Work on `CCOc1cc(CNn2nnnc2N)ccc1OCC(=O)NC(C)(C)C` yielded a z-score of 0.0877.
`CC(Nc1ccccc1)c1cc(Cl)ccc1O` (centres undefined) was tested, and the z-score was -0.679.
`CCN(CC)S(=O)(=O)c1cc([N+](=O)[O-])ccc1N=Nc1c(O)n(C)c2ccccc12` gave a z-score of -0.269.
For `COc1cc(N=c2ssnc2Cl)cc(OC)c1`, the z-score was 0.302.
Molecule `O=C(CNC(=O)c1ccco1)OCc1c(F)cccc1Cl` has a z-score of -0.0239.
`COc1cc(-c2nc3n(n2)C(c2cccc(OC)c2OC)C2=C(CCCC2=O)N3)cc(OC)c1OC` (centres undefined) showed a z-score of -1.33.
`CC(=O)Nc1nc2ccccc2n1CCN(C)C` was tested, and the z-score was -0.911.
`COc1ccc(C(=O)CC(c2ccccc2)C2C(=O)CCCC2=O)cc1` (centres undefined) was tested, and the z-score was 1.12.
Work on `CCC(c1nnc(SCC(=O)NCCc2ccc(Cl)cc2Cl)o1)N(C)C` (centres undefined) yielded a z-score of 0.138.
With `CCCCNC(=O)c1onc(CSc2ccc(OC)cc2)c1C(=O)O` the z-score was -0.264.
`O=C(C1CCN(S(=O)(=O)c2cccc3cccnc23)CC1)N1CC=C(c2ccccc2)CC1` gave a z-score of -2.19.
In the case of `Cc1ccc(NCCC(=O)c2ccc(Cl)cc2)cc1`, the z-score is reported as -0.27.
`Cc1nn(CC(=O)NCc2ccccc2)c(=O)c2ccccc12` gave a z-score of -0.576.
`O=C(c1ccco1)N1CCN=C1SCc1ccccc1F` was tested, and the z-score was -0.0242.
With `Cc1ccc(C(=O)N2CCN(c3ccc(NC(=S)NC(=O)Cc4ccccc4)cc3)CC2)cc1` the z-score was 0.114.
`O=C(NC1CCCCC1)c1nc2c(nnn2Cc2ccccc2Cl)c(=O)[nH]1` gave a z-score of -0.806.
Molecule `O=C(NCC1(c2ccccc2)CCCC1)C(=O)N1CCOCC1` has a z-score of -0.403.
Work on `CC1CCN(c2nc3c(c(=O)[nH]c(=O)n3C)n2CCCc2ccccc2)CC1` yielded a z-score of -0.704.
For `COc1cc(Cl)cc(NC(=O)CCN2CCN(C)CC2)c1`, the z-score was 0.892.
`O=C(Cn1cnc2c(nnn2Cc2ccc(Cl)cc2)c1=O)NCC1CCCO1` (centres undefined) was tested, and the z-score was -0.00714.
For `O=C(Nc1ccccc1C(F)(F)F)c1cc(-c2cccc(O)c2)on1`, the z-score was 0.524.
For `c1ccc(NC(=NCc2ccco2)c2ccccc2)cc1`, the z-score was -0.548.
`CCCCOn1c(C)c(C(=O)OCC)c2c3nonc3ccc21` was tested, and the z-score was -0.842.
`O=C(CSc1ncn[nH]1)c1ccco1` gave a z-score of 0.0338.
With `Nc1c(C(=O)C2CC2)sc2nc(-c3ccccc3)cc(C(F)(F)F)c12` the z-score was -1.24.
Molecule `Cc1nc2nc(C)c(CCC(=O)N3CCc4ccccc43)c(C)n2n1` has a z-score of 0.142.
`COc1cc2c(cc1NC(=O)C(C)OC(=O)C1CC(=O)N(Cc3ccco3)C1)oc1ccccc12` (centres undefined) was tested, and the z-score was -0.283.
`O=C1N=C(N2CCOCC2)S/C1=C/c1ccc(-c2ccccc2Cl)o1` gave a z-score of -0.08.
`Cc1ccc(C)c(NC(=O)c2nc(-c3ccccc3)n(-c3ccccc3)n2)c1` showed a z-score of -0.0168.
`CN1CC(c2ccccn2)C2(SC(=S)N(Cc3ccccc3)C2=O)C12C(=O)Nc1ccccc12` (centres undefined) gave a z-score of -0.103.
`O=C(NCCO)c1ccc2[nH]c3ccccc3c2c1` gave a z-score of -0.163.
Molecule `N#CC1=C(SCC(=O)NC2CCCCC2)NC(=O)CC1c1ccco1` (centres undefined) has a z-score of -0.314.
Work on `COc1ccccc1/C=C1\NC(=S)N(CC2CCCO2)C1=O` (centres undefined) yielded a z-score of 0.246.
In the case of `O=[N+]([O-])c1ccc(O)c(/C=N\N=C2c3ccccc3-c3ccccc32)c1`, the z-score is reported as -0.297.
Work on `Cn1c2ccccc2c2cc(C(=O)N3CCOCC3)sc21` yielded a z-score of -0.0317.
Work on `COc1ccc(-n2c(SCC(=O)Nc3ccccc3)nnc2-c2ccoc2C)cc1` yielded a z-score of -0.171.
For `CCN1C(=Nc2ccc(Cl)cc2)SC/C1=C\C(=O)OC`, the z-score was -0.144.
For `Cc1ccc(COc2ccsc2-c2n[nH]c(=S)n2C)cc1`, the z-score was 0.986.
With `Cc1ccc(-c2nnc(SCC#CCOC(=O)c3cccs3)o2)cc1` the z-score was 0.19.
Work on `COC(=O)c1[nH]c2ccc(F)cc2c1NC(=O)C1=COCCO1` yielded a z-score of -0.198.
For `O=C(OC1CCOC1=O)c1cc(-c2ccc(Cl)cc2)nc2ccccc12` (centres undefined), the z-score was 0.4.
For `COC(=O)CN1C2(C#N)CCCCC2CC2CCCCC21C#N` (centres undefined), the z-score was 0.16.
With `COc1ccc(OC)c(Nc2nc(-c3sc(C)nc3C)cs2)c1` the z-score was 0.304.
In the case of `CC(C)CCNC(=O)CSc1nnc(-c2ccc(S(=O)(=O)N3CCCC3)cc2)n1C`, the z-score is reported as -0.0644.
`Cc1ccc(-c2csc3ncnc(-n4nnc5ccccc54)c23)cc1` showed a z-score of -0.239.
`Cc1c(Br)c([N+](=O)[O-])nn1CC(=O)Nc1c(C)n(C)n(-c2ccccc2)c1=O` showed a z-score of 0.124.
Molecule `CN(C(N)=S)c1ccccc1` has a z-score of -0.17.
Work on `O=C(COC(=O)Cc1ccc(Cl)cc1)Nc1ccccc1-c1ccccc1` yielded a z-score of -0.515.
`CCc1c(C(=O)NCc2cnn(C)c2)csc1C` gave a z-score of 1.09.
Molecule `Cc1cccc(Nc2ccccc2C(=O)OCC(=O)NCc2ccco2)c1C` has a z-score of -0.14.
For `Cc1cc(NC(=O)CSc2nc3ccccc3c(=O)n2C(C)c2ccccc2)no1` (centres undefined), the z-score was 1.55.
Work on `O=C(Cc1ccccc1)CC1(O)C(=O)Nc2ccccc21` (centres undefined) yielded a z-score of 0.114.
Molecule `CC(C)[C@H](NC(=O)c1ccccc1)C(=O)OCC(=O)N1CC2(C)CC1CC(C)(C)C2` (some centres undefined) has a z-score of -0.43.
